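These data come from cells grown in 96-well plates and exposed to compound for 48 hours at five concentrations. GI50 is the concentration that inhibits growth by half. TGI: total growth inhibition.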
System: NCI-H322M lung
Assay: growth of human tumour cells (NCI), 48 h

Compound	GI50	TGI
O=C1Nc2ccc(F)cc2/C1=C/c1cccc(OCc2ccccn2)c1	16 µM	34.4 µM
COc1ccc(-c2nc3cc(C)ccc3n2CC(=O)N=Nc2c(O)[nH]c3ccccc23)cc1	3.79 µM	16.7 µM
CNc1nc2ccccc2n2c(-c3ccc(O)c(O)c3)cnc12	< 0.0217 µM	56.4 µM
C=CCn1c(SCC(=O)Nc2ccc(C(=O)/C=C/c3ccccc3)cc2)nnc1-c1c[nH]c2ccccc12	48.6 µM	> 100 µM
COc1ccc(-c2nc3cc(C)ccc3n2CC(=O)N=Nc2c(O)[nH]c3ccc(Cl)cc23)cc1	2.59 µM	9.18 µM
COc1ccc(/C=C/c2nc3ccccc3c(=O)n2CC(=O)Nc2ccccc2)cc1	3.78 µM	> 100 µM

Reference: PubChem BioAssay (NCI)
